Assay results taken from PubChem BioAssay (NCATS).
Where “and” joins values, the source holds several entries; their conditions need not be identical. Equal entries are not always repeated. The inconclusive results got no clear call from the source; some entries with a clear call stand among them for comparison. Where the call is inconclusive, the potency comes from a doubtful curve fit. Calls of active or inactive are those of the source. Calls follow the shape of the dose curve; as a rule, active = well fitted curve in the direction sought with a large enough effect; inconclusive = small, poorly fitted or top-dose-only effect, or another doubt; inactive = no such curve, though single readings can be large; an effect the other way counts as inactive or inconclusive.

Tests used:
[1] = qHTS for Inhibitors of Plasmodium falciparum (GB4) proliferation (AID 504315); also: nearly all actives have a fitted effect of over 50% in size;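 as to activity change, negative = inhibition: 0% = DMSO vehicle and -100% = 0.29 µM artemisinin control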; settings: P. falciparum GB4 in erythrocytes, SYBR Green DNA, 72 h; activity change, negative = inhibition: at 6.7 µM (top of the series)
Outline: (§1)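 Parasite growth measured as SYBR Green DNA fluorescence (ex 485, em 535 nm) after overnight lysis following 72 h culture at 37 °C, 0.3% parasitemia, 2.5% hematocrit. Values normalized against DMSO and 0.29 uM artemisinin controls, with plate-stack correction.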

[2] = qHTS for Inhibitors of Plasmodium falciparum (7G8) proliferation (AID 504316); also: nearly all actives have a fitted effect of over 65% in size;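 as to activity change, negative = inhibition: 0% = DMSO vehicle and -100% = 0.29 µM artemisinin full kill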; settings: P. falciparum 7G8 in erythrocytes, SYBR Green DNA, 72 h; activity change, negative = inhibition: at 6.7 µM (top of the series)
Outline: as §1

[3] = qHTS for Inhibitors of Plasmodium falciparum (HB3) proliferation (AID 504318); also: nearly all actives have a fitted effect of over 60% in size; settings: P. falciparum HB3 in erythrocytes, SYBR Green DNA, 72 h; activity change, negative = inhibition: at 7.21 µM (top of the series)
Outline: as §1
Potency is read from the fitted curve at half-maximal effect; tags tell the direction and shape of the fitted curve.

Structure (SMILES) | Potency [1] | Potency [2] | Potency [3] | activity change, negative = inhibition [1]
CCCCC1=CC2=CC(=O)C(C)(OC(=O)CC)C(=O)C2=CN1CCCOC(C)C (stereo not drawn) | inactive | inactive | – | –
COC(=O)[C@H]1[C@@H](C)N(CCc2cc(OC)c(OC)c(OC)c2)C(=O)N[C@H]1c1ccccc1 | inconclusive: 1.51 µM [inhibitor, partial curve, poor fit] | inconclusive: 1.35 µM [inhibitor, partial curve] | – | –
CCOC(=O)CN1C(=O)N[C@@H](c2cccc(C(F)(F)F)c2)C(C(C)=O)=C1C | inactive | inactive | – | –
COCOc1c2c(c(OCOC)c3c(OCOC)cccc13)C(=NNS(=O)(=O)c1ccc(C)cc1)C1=C2CCCC1 | inconclusive: 1.69 µM [inhibitor, single point] | inconclusive: 4.26 µM [inhibitor, single point] | inconclusive: 1510 nM [inhibitor, partial curve] | –
COC(=O)C1=C(C(=O)OC)[C@@H]2Nc3ccccc3[C@@]23C[C@@H](C(=O)OC)N(S(=O)(=O)c2ccc(OC)cc2)C3=N1 | inconclusive: 1.51 µM [inhibitor, single point] | inconclusive: 4.26 µM [inhibitor, single point] | inconclusive: 4260 nM [inhibitor, single point] | –
Cc1cc(O)cc(O)c1C(=O)OC1(C)C(=O)C=C2C=C(C=CC(=O)O)OC=C2C1=O (stereo not drawn) | inactive | inactive | inconclusive: 169 nM [inhibitor, partial curve, poor fit] | –
C[C@H]1COc2c(N3CCN(C)CC3)c(F)cc3c(=O)c(C(=O)NCc4ccco4)cn1c23 | – | inactive | – | inconclusive: 4.86% [activator]
CCCCCCCC1=Cc2ccc(F)cc2C(C(C(C)=O)C(=O)OC)N1C(=O)OC (stereo not drawn) | inconclusive: 1.9 µM [inhibitor, single point] and inconclusive: 1.69 µM [inhibitor, partial curve] | inconclusive: 3.38 µM [inhibitor, single point] and inconclusive: 1.69 µM [inhibitor, single point] and inconclusive: 1.51 µM [inhibitor, single point] | – | –
C=CCCN1C=C(C(=O)OCC)C(c2ccccc2)NC1=O (stereo not drawn) | inactive | inactive | – | –
COc1ccc(COC(=O)NN=C2C[C@@H](O)[C@@H](O)[C@@H]3[C@H]4C(=O)N(c5cccc(Oc6ccccc6)c5)C(=O)[C@@H]4CC[C@H]23)cc1 | inconclusive: 0.0085 µM [inhibitor, full curve, poor fit] | inactive | – | –
COC(=O)[C@H](COC(C)(C)C)NC(=O)O[C@@H]1C(=O)c2ccc(OC)cc2O[C@H]1c1cccc(C(F)(F)F)c1 | inactive | inconclusive: 1.69 µM [inhibitor, single point] | – | –
COC(=O)CC1c2ccccc2C=C(/C=C/c2ccc3c(c2)OCO3)N1C(=O)OC (stereo not drawn) | inconclusive: 4.26 µM [inhibitor, single point] | inconclusive: 2.13 µM [inhibitor, single point] | – | –
FC(F)(F)c1ccc(-c2nc(-c3ccccc3)oc2Nc2ccc3ccccc3c2)cc1 | inactive | inconclusive: 1.51 µM [inhibitor, partial curve] | – | –
CCC(=O)N1C2=C(c3ccccc3[C@@H]1CC(=O)Nc1ccc3ccccc3c1)[C@@H]1C(=O)N(c3ccccc3)C(=O)[C@@H]1[C@H](C)C2 | inconclusive: 1.69 µM [inhibitor, partial curve] | active: 1.9 µM | inconclusive: 2130 nM [inhibitor, partial curve] | –
CC(C)=CCCC(C)=CCN1C(=O)[C@@]2(C[C@@H](C)C[C@@H](C)O2)c2ccccc21 | inconclusive: 1.69 µM [inhibitor, single point] | inconclusive: 0.426 µM [inhibitor, single point] | – | –
COC(=O)C1=C(C(=O)OC)[C@@H]2N(C)c3ccc(OC)cc3[C@@]23C[C@@H](C(=O)OC)N(S(=O)(=O)c2ccc([N+](=O)[O-])cc2)C3=N1 | inconclusive: 1.51 µM [inhibitor, single point] | active: 1.51 µM | – | –
COC(=O)C1=C(C(=O)OC)[C@@H]2N(Cc3ccccc3)c3ccccc3[C@@]23C[C@@H](C(=O)OC)N(S(=O)(=O)c2cccs2)C3=N1 | inconclusive: 4.26 µM [inhibitor, single point] | inconclusive: 3.79 µM [inhibitor, single point] | – | –
